In PubChem BioAssay AID1159614 (National Center for Advancing Translational Sciences (NCATS), 2016):
Among all 45,000 compounds or so, about 65 (0.1%) were called active. Calls come from the whole dose curve; as a rule, active = well fitted activation curve with a large enough effect; inconclusive = small, poorly fitted or top-dose-only effect; inactive = no such curve, though single readings can be large or run the other way. The list shows a part of the results.

Target: Galactocerebrosidase (Homo sapiens) (UniProt P54803)
Assay: A Novel Cell-Based Assay to Identify Small Molecules for B -Galactocerebrosidase; note: 0% is about no effect; nearly all actives have a fitted effect of over 65% in size
Conditions: 145M-Twi-hGALC-G270D cells (Twitcher mouse brain line with human GALC G270D), HMU-beta-Gal fluorescence, 48 h; series mostly up to 57.5 µM; activation: at the top concentration
Summary of the method: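 Fluorescence readout: HMU-β-gal cleavage by mutant GALC (0.1 mM final, citrate/phosphate pH 5.2 with 1 mg/mL taurocholate), stopped with carbonate/bicarbonate plus Triton X-100. Cells: murine Twitcher 145M-Twi expressing human G270D GALC; qHTS for activators.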

UniProt P54803, sequence (P54803 whole entry, looked up): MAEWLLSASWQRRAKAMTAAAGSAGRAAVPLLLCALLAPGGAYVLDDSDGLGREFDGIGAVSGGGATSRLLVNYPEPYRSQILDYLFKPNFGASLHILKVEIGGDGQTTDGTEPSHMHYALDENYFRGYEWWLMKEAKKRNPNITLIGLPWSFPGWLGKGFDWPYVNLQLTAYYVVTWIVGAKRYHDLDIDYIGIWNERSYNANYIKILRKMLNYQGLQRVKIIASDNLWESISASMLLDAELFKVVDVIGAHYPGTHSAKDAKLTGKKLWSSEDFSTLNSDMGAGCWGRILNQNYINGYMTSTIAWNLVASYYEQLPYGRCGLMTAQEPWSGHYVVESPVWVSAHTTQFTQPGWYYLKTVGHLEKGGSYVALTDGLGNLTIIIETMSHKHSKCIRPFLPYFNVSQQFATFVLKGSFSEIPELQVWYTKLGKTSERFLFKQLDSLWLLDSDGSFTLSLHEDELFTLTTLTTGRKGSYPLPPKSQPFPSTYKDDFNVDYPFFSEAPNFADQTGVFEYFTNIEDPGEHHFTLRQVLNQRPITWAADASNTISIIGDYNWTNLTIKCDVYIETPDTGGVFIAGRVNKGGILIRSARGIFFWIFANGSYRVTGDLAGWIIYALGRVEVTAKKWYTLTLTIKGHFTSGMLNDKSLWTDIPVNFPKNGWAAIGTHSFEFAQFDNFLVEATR

activation, inactive:
CC(=O)Nc1c(C)nn(-c2ccccc2)c1N1CCC(C(=O)Nc2ccccc2C(F)(F)F)CC1 -8.96%, O=C(Cn1c(-c2cccs2)cc2cc(F)ccc21)N1CCN(c2ccccc2)CC1 -6.59%, COc1ccc(CNc2oc(/C=C/c3cc(OC)c(OC)c(OC)c3)nc2C#N)cc1 -9.69%, COc1ccc(C)cc1-n1nnc(S(=O)(=O)c2ccc(C)cc2)c1C -0.377%, Cc1cccn2c(=O)c(C(=O)NC(C)c3ccccc3)c(O)nc12 (configuration not stated) -18.8%, CCOc1ccc(Nc2oc(/C=C/c3ccc(OC)c(OC)c3)nc2C#N)cc1 -1.51%, Cc1ccc(N(CC(=O)NCCSc2ccccc2)S(=O)(=O)c2ccc(F)cc2)cc1 -2.23%, CC(=O)c1ccc(NC(=O)c2cc3sccc3n2Cc2ccc(Cl)cc2)cc1 -37.1%, O=C(COc1ccc(Cl)cc1)NCC(c1ccco1)S(=O)(=O)c1ccc(F)cc1 (configuration not stated) -12.4%, CCOCCCNC(=O)C(=O)Nc1c2c(nn1-c1ccccc1)CSC2 -7.3%, O=C(c1ccccc1Cl)N1CCC(c2nc3ccccc3s2)CC1 -19.3%, CCN(CC)S(=O)(=O)c1ccc(C(=O)NC2CC(=O)N(c3ccc(OC)c(OC)c3)C2)cc1 (configuration not stated) -5.07%, CN1CCCCC1CCN1c2ccccc2Sc2ccc(S(C)=O)cc21 (configuration not stated) -14.4%, COCCCn1c(SCC(=O)Nc2ccc(F)cc2)nc2c(sc3ccccc32)c1=O -14.4%, Cc1cccc(NC(=O)C2CCCN(S(=O)(=O)c3ccc4c(c3)CCCC(=O)N4)C2)c1 (configuration not stated) -2.77%, COc1ccc(Cl)cc1NC(=O)Cn1nc(C(F)(F)F)c2c1CCCC2 -13.6%, Cc1ccc(CNS(=O)(=O)c2ccc3[nH]c4c(c3c2)CCCCC4)cc1 -10.2%, COCCCn1c(=O)c2sccc2n2c(CCCC(=O)Nc3cccc(OC)c3)nnc12 -2.73%, COc1ccc(CNC(=O)c2cc3cccc4c3n2CC(C)S4)cc1OC (configuration not stated) -6.35%, CC(=O)N1CCCC1c1nc2ccccc2n1Cc1ccc(F)cc1 (configuration not stated) -7.69%, O=C(c1ccc2c(c1)N(Cc1c(F)cccc1Cl)C(=O)c1ccccc1S2)N1CCCC1 -11.7%, CCc1ccc(NC(=O)c2ccc(Cn3nc(N4CCN(c5ccccc5)CC4)ccc3=O)o2)cc1 -8.15%, Cc1ccc(Cl)cc1-n1ncc2c(Nc3ccc4c(c3)OCCO4)ncnc21 -12.6%, COc1cc(NC(=O)CN2C(=O)COc3ccc(S(=O)(=O)NC4CCCC4)cc32)cc(OC)c1 -7.94%, CCCn1c2ccccc2c2cnn(CC(=O)NCCCN(CC)c3ccccc3)c(=O)c21 -23.8%, CC1CCc2c(sc3nnn(CC(=O)Nc4c(C(C)C)cccc4C(C)C)c(=O)c23)C1 (configuration not stated) -14.6%, CCC(C)c1ccccc1OCC(=O)Nc1ccc(S(=O)(=O)Nc2cc(C)on2)cc1 (configuration not stated) -9.82%
